± gives the standard deviation of the averaged measurements. Some of the results follow.
Each sequence was assayed on PfAP2-I AP2 domain 3 (GST-tagged) (assay: gcPBM binding intensity (ln(normalized median fluorescence intensity)); higher = stronger DNA binding).
How it was run: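 GST-tagged P. falciparum DNA-binding domains, expressed in E. coli (about 25 μg on average), were applied for 1 h to an Agilent 4 × 180k array of primer-extended double-stranded 36-bp intergenic genomic probes plus negative controls. The binding buffer was 1× PBS with 1% milk, 0.2 mg/ml BSA, 0.5% salmon testes DNA and 0.03% Triton X-100. Bound protein was detected with Alexa488 anti-GST antibody and scanned at 488 nm. Binding intensity is the highest Masliner-normalised natural-log median intensity across replicate spots of either probe orientation.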

Question: For “CAAGAAAATGGACACACACACATATATATATATATA [CACACA_site6010]”, which “gcPBM binding intensity (ln)” value is on record?
Answer: 9.39 ± 0.33

Question: For “CAAATTTAAAAAAAATCACACACAGAAAAAAAAAAA [CACACA_site8728]”, which “gcPBM binding intensity (ln)” value is on record?
Answer: 8.09 ± 0.79

Question: Which “gcPBM binding intensity (ln)” value does the source give for “TTTGTTTTAAATATTATACACACGTAAAAGTAGAAT [CACACA_site214]” here?
Answer: 8.21 ± 0.42

Question: For “GGAAACCTTTTTTTTACACACAATATATTAATACTT [CACACA_site1403]”, which “gcPBM binding intensity (ln)” value is on record?
Answer: 7.86 ± 0.67

Question: “GTGTAATTATCAGCATAAATATGGTACATACATAAA [CACACA_negctrl_site323]” was tested. Which “gcPBM binding intensity (ln)” value did it give?
Answer: 7.97 ± 0.39

Question: How did the “gcPBM binding intensity (ln)” value turn out when “TGTATACGCATATGTACACACATATATATGTATATG [CACACA_site3087]” was run?
Answer: 7.89 ± 0.23

Question: How did the “gcPBM binding intensity (ln)” value turn out when “TTTTTTTTTTTGTTCACACATATACTTTTATTTTGG [CACACA_site4250]” was run?
Answer: 8.34 ± 0.8

Question: Which “gcPBM binding intensity (ln)” value does the source give for “AATGCTATCATTAATGCACACATTTAAACTTAATAT [CACACA_site5878]” here?
Answer: 11 ± 0.61

Question: With “TATAACGCTTGCAGCTGTACAAAAATAATCAAACTG [XGTACX_site2464]” as the sequence, how does the “gcPBM binding intensity (ln)” value read?
Answer: 7.71 ± 0.39

Question: With “TTCTTGGAATACAAGTGTACTTTATTATTATTATTA [XGTACX_site5997]” as the sequence, how does the “gcPBM binding intensity (ln)” value read?
Answer: 7.86 ± 0.4

Question: Which “gcPBM binding intensity (ln)” value does the source give for “ATAGAAAGTGACAATTGTACATACATATTATATATA [XGTACX_site4390]” here?
Answer: 7.96 ± 0.38

Question: For “TTTTTTTTTGCCTACTGTACTATTTTTGAGCTCACC [XGTACX_site7967]”, which “gcPBM binding intensity (ln)” value is on record?
Answer: 8.34 ± 0.24

Question: With “AAAAAAAAAAAAAAAAAAAAATTTCAATTATATTGA [GTGCAC_negctrl_site642]” as the sequence, how does the “gcPBM binding intensity (ln)” value read?
Answer: 9.28 ± 0.071

Question: How did the “gcPBM binding intensity (ln)” value turn out when “AAAATTATAATATATACACACATATATATATTAAAT [CACACA_site473]” was run?
Answer: 7.54 ± 0.54

Question: Which “gcPBM binding intensity (ln)” value does the source give for “AGATAAAAAAAGTACACACACACATATATATATATA [CACACA_site3072]” here?
Answer: 9.34 ± 0.38

Question: For “AAGCTTCCTTAATATACACACATATCTGAGTATATT [CACACA_site5939]”, which “gcPBM binding intensity (ln)” value is on record?
Answer: 7.67 ± 0.54

Question: For “CAAAATATAGATGACACACACAAAAAAAGTATATTA [CACACA_site6848]”, which “gcPBM binding intensity (ln)” value is on record?
Answer: 7.53 ± 0.7

Question: With “CATTTACCCTTATTAACACACAAAATATAATACGCT [CACACA_site2565]” as the sequence, how does the “gcPBM binding intensity (ln)” value read?
Answer: 8.03 ± 0.43

Question: With “ATTTACATTCACTTATGTACTTATATAATTTTATTT [XGTACX_site8150]” as the sequence, how does the “gcPBM binding intensity (ln)” value read?
Answer: 7.88 ± 0.46

Question: With “TACATATGAAAATACACACATACATACATATATATA [CACACA_site1673]” as the sequence, how does the “gcPBM binding intensity (ln)” value read?
Answer: 8.1 ± 0.56

Question: Which “gcPBM binding intensity (ln)” value does the source give for “TAACTCCACAAATAATGTACATATATCACTATATTT [XGTACX_site4911]” here?
Answer: 7.76 ± 0.59

Question: “AATGTATAATTATAATGTACAAATAATATATAATAT [XGTACX_site5407]” was tested. Which “gcPBM binding intensity (ln)” value did it give?
Answer: 7.88 ± 0.52

Question: “TATATTAAACATATATGTACATATTTTTTCTGAACA [XGTACX_site5390]” was tested. Which “gcPBM binding intensity (ln)” value did it give?
Answer: 7.7 ± 0.26

Question: “ACCAAATCATATATAGCACACAAATTCTTTATTATT [CACACA_site8911]” was tested. Which “gcPBM binding intensity (ln)” value did it give?
Answer: 8.66 ± 0.092

Source: the supplement of paper PMC11417369
